Source: patent US12466849B2, “Anti-viral and anti-tumoral compounds” (YEDA RESEARCH AND DEVELOPMENT CO. LTD, priority 2020, dated 2025)

What was measured:
PrimPol = target: T1, PrimPol (Homo sapiens, UniProt Q96LW4)
T1 sequence (Q96LW4 2-559): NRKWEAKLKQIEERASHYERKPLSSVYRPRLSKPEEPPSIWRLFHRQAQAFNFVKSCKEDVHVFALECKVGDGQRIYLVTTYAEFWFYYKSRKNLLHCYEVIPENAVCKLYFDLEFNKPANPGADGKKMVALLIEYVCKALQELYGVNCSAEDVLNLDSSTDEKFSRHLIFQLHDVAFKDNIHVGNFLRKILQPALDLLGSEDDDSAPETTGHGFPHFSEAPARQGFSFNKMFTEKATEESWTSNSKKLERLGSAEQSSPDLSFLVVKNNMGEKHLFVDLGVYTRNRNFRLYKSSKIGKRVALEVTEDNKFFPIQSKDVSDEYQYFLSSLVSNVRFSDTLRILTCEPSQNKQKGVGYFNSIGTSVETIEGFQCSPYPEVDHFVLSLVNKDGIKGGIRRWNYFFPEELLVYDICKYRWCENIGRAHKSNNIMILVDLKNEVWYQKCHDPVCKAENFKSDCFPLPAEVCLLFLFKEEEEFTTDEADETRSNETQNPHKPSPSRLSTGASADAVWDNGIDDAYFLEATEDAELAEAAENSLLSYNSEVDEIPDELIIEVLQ

[1] = target: mitochondrial RNA polymerase (POLRMT) (Homo sapiens, UniProt O00411)
Chain of mitochondrial RNA polymerase (POLRMT) (O00411 142-1230): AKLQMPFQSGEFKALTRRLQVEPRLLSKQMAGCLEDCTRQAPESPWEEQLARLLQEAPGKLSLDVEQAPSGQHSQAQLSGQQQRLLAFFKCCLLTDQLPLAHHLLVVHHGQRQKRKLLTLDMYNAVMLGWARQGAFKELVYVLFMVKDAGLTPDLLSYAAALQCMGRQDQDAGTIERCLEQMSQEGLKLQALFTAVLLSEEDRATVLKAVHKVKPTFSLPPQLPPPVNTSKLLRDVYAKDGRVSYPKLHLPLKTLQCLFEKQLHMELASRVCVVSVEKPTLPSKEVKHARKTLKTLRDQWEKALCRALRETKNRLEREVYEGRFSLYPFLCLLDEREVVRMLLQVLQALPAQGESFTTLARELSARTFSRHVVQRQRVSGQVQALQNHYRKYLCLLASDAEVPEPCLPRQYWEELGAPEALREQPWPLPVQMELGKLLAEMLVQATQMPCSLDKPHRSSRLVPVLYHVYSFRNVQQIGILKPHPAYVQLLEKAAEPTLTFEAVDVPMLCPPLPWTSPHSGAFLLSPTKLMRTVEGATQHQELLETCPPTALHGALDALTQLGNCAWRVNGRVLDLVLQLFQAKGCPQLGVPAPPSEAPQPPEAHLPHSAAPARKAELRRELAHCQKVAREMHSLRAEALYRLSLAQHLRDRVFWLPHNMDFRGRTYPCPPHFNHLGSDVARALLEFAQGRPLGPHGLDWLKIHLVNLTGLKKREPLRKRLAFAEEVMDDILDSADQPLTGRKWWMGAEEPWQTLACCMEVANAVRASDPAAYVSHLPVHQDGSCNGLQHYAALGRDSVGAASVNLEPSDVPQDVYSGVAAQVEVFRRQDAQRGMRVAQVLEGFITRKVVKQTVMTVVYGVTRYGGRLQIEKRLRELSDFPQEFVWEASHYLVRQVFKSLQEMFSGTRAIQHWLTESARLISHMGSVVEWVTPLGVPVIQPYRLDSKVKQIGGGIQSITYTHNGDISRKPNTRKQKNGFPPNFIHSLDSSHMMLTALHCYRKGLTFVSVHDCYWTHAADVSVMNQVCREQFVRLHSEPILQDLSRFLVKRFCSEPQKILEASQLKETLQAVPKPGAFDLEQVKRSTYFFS

SMILES	substrate for PrimPol (in words) (PrimPol)	substrate for POLRMT (in words) [1]
N#C[C@@]1(c2ccc3c(N)ncnn23)OC(COP(=O)(O)OP(=O)(O)OP(=O)(O)O)=C[C@H]1O [ddhREM-TP, ddhRemdesivir]	poor substrates	poor substrates
O=c1ccn(C2OC(COP(=O)(O)OP(=O)(O)OP(=O)(O)O)=CC2O)c(=O)[nH]1 (stereo not shown) [ddhUTP, 3′-deoxy-3,4-didehydro-UTP]	poor substrates	poor substrates
